# This is one part of the list. The energies were worked out here from pooled read counts, against the library average; single values are noisy.
# Target: T1, Pho4 (S. cerevisiae) (UniProt P07270)
# T1 sequence: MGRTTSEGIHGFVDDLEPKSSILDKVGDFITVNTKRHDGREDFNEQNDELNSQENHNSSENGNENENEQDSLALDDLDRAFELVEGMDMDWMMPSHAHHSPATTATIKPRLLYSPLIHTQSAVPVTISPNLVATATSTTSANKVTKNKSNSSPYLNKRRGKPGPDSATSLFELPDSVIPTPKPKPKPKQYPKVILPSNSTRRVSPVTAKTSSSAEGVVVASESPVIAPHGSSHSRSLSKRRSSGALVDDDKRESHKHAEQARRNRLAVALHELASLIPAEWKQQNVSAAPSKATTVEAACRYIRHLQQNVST
# Experiment: relative binding free energy (BET-seq); higher = weaker binding
# Conditions: reference: library average
row,Sequence,relative binding free energy [kcal/mol]
1,GCGTGCACGTGTGTCT,0.18
2,ACTTTCACGTGGTGCG,0.2
3,ACTGGCACGTGTGTGG,0.02
4,TGGCTCACGTGGGTTC,0.09
5,AGTTACACGTGTTGTG,0.06
6,AGATTCACGTGGGTCT,0.15
7,AAATTCACGTGGGTGT,0.17
8,GCGGGCACGTGATAGT,0.14
9,AGTGCCACGTGGGGGA,-0.34
10,TTATTCACGTGGGTAG,0.06
11,TTCCGCACGTGTGTAG,-0.06
12,TGTAGCACGTGGTGCG,-0.29
13,AGTCTCACGTGTGATG,0.27
14,GGAATCACGTGGTTCG,0.23
15,TTTAGCACGTGGCTTT,-0.14
16,ATTGGCACGTGCGGGA,-0.08
17,TAGGTCACGTGATTGT,0.26
18,AGGTACACGTGAGGGG,0.31
19,GGGTACACGTGGTGGT,0.05
20,TGGTGCACGTGGCATG,-0.13
21,AAGTCCACGTGGTTTG,0.08
22,AGAGACACGTGGGCAG,-0.05
23,GTGAGCACGTGGGACG,-0.12
24,CTTGGCACGTGGTCTT,-0.13
25,TTGTGCACGTGTGGAC,0.14

row,Sequence,relative binding free energy [kcal/mol]
1,ATTAACACGTGGGGTG,-0.12
2,ATGCGCACGTGATGGG,-0.01
3,GTTATCACGTGTAAGG,0.14
4,CATGGCACGTGTATAT,-0.02
5,GGATTCACGTGTACGT,0.23
6,GGTCGCACGTGAGGAT,0.47
7,GTTCGCACGTGTGGGC,0.11
8,CTTGGCACGTGAATTG,0.07
9,TAATACACGTGGTTTG,0.02
10,TTGGGCACGTGACGGC,0.17
11,GGTGGCACGTGCTGTT,-0.19
12,TTGGCCACGTGCGGGG,-0.15
13,AAGAGCACGTGTGGGA,-0.16
14,TTCGTCACGTGGAGCG,0
15,TTAAACACGTGCGTTG,0
16,GCTTCCACGTGGTGTT,0.13
17,AAAGACACGTGTGGAT,0.25
18,GATCGCACGTGTAGTG,0.11
19,AATATCACGTGTGGTT,0.24
20,CTGTGCACGTGTTTAG,0.08
21,ATACGCACGTGGTGGA,-0.23
22,GTTGTCACGTGAAAGT,0.29
23,CTGCTCACGTGTTGTT,0.22
24,GAGGACACGTGGGGTT,0.03
25,TCAGGCACGTGAGTTT,0.08

row,Sequence,relative binding free energy [kcal/mol]
1,TTTTTCACGTGGTTTT,0.33
2,AGGGACACGTGCGCGG,-0.12
3,TTTTTCACGTGGGATT,0.22
4,CGGGTCACGTGGTTCA,0.06
5,GGTAACACGTGTATTA,0.08
6,ACGGTCACGTGGACGG,0.16
7,TGGAGCACGTGTTTTG,0
8,ATGTACACGTGTGCGT,0.06
9,GCGTTCACGTGGGGTT,0.1
10,AGTGGCACGTGAATTT,0.15
11,TCTAGCACGTGAGTTT,0.13
12,GAGTGCACGTGTGTGT,-0.01
13,AGGGCCACGTGGGTTA,-0.17
14,GAGATCACGTGATGTG,0.39
15,ATGCACACGTGTATTG,-0.01
16,GCAGGCACGTGGGACG,-0.19
17,GTAGGCACGTGTGTAG,-0.05
18,GTAGACACGTGCGTTG,-0.13
19,CCTGTCACGTGTTTGT,-0.1
20,TTTGGCACGTGGGCGT,-0.22
21,TTGTACACGTGGGGCG,-0.05
22,GTGACCACGTGGAATT,0.29
23,GATTCCACGTGTTTGA,0.32
24,ATAGACACGTGTCGTT,0
25,TGCGACACGTGAAGTT,0.2

row,Sequence,relative binding free energy [kcal/mol]
1,TTCGTCACGTGAAGTG,0.27
2,AGTGCCACGTGAATGG,0.13
3,AGGGTCACGTGTTGGC,0.08
4,CTTGGCACGTGTATGA,-0.16
5,GTTTTCACGTGGTGAT,0.35
6,AGTTGCACGTGGTGTC,-0.03
7,GATTGCACGTGAATTA,0.33
8,ATAGCCACGTGGGGTT,-0.26
9,CTTGACACGTGTTTTG,0
10,ATGTGCACGTGGGAGT,-0.07
11,GTGGGCACGTGAGTCG,0.16
12,GTAGGCACGTGTGATG,0.04
13,TCGAGCACGTGGGCGT,-0.12
14,CTAGACACGTGGGAGG,-0.12
15,GGGCGCACGTGGTGGG,-0.16
16,TATGTCACGTGGGTCC,0.01
17,GGTGGCACGTGCCGTG,0.02
18,TGTCTCACGTGTAAGG,0.18
19,CGATGCACGTGGAGTT,0.13
20,TTTCGCACGTGGGTAA,-0.1
21,TTGCACACGTGATAGG,0.19
22,AATGCCACGTGTTTAT,0.03
23,GTGCACACGTGGTGTA,0.03
24,AGACGCACGTGGTGTT,-0.18
25,TATCACACGTGGGAGT,-0.03

row,Sequence,relative binding free energy [kcal/mol]
1,TGTCGCACGTGGGCGT,-0.2
2,GAAGTCACGTGGACGT,0.15
3,GGGCGCACGTGGTTCG,0.05
4,AATTGCACGTGGTTGC,0
5,TGGGTCACGTGCTAGC,0.11
6,TGATTCACGTGGGGAG,0.02
7,AATTGCACGTGCGGAG,-0.11
8,GGGATCACGTGGTGGG,0.15
9,ATGTGCACGTGGACTG,-0.03
10,CGGTTCACGTGGGGAT,0.21
11,TATTTCACGTGATGCT,0.31
12,GTTTTCACGTGGCAAT,0.28
13,GTTGACACGTGAACGT,0.22
14,GTCGTCACGTGGGACG,0.08
15,GGTTGCACGTGGTTCA,0.03
16,GGATGCACGTGGCTAT,0.01
17,TTGTCCACGTGAATGT,0.18
18,TTCTTCACGTGATATG,0.08
19,AATAGCACGTGTTTGC,-0.01
20,CGTTTCACGTGTGTTT,0.26
21,GGCAGCACGTGAGGGC,0.13
22,CTTAACACGTGTGTGA,-0.06
23,AGGAGCACGTGGTGGA,-0.11
24,TATGTCACGTGAAATG,0.22
25,TGTTTCACGTGGTGCT,0.12

row,Sequence,relative binding free energy [kcal/mol]
1,CATATCACGTGTGGTA,0.08
2,TATGGCACGTGAGTGG,0.1
3,GTTGTCACGTGGCATT,0.06
4,TGGTGCACGTGGGGTC,-0.23
5,GCGAGCACGTGTGTTG,0.01
6,TCTGGCACGTGTTATA,-0.17
7,GTGGGCACGTGGGGTA,-0.25
8,GTGGACACGTGAAGAG,0.19
9,GTAAGCACGTGGTTTA,-0.22
10,AGCAGCACGTGTGGGT,0
11,CTATGCACGTGAGGGC,0.16
12,TAAATCACGTGTGTGT,0.13
13,TATGTCACGTGTTAAT,0.13
14,CTTGGCACGTGCAAGG,-0.07
15,GCAGGCACGTGGTGGT,-0.18
16,TGCTGCACGTGAATGG,0.11
17,GACTTCACGTGGTATT,0.25
18,GGTTACACGTGTTCGG,0.15
19,TGGGGCACGTGTTGAG,-0.05
20,TCAGTCACGTGAAGGG,0.3
21,ACTGGCACGTGTTCGT,-0.15

# Source: the BET-seq Pho4 binding data (Le et al. 2018)
